Assay results as given in PMC3519786, “Novel Interactions between FOXM1 and CDC25A Regulate the Cell Cycle” (PLoS ONE, 2012).
Where a chain is given by its changes, count along the chain named. Names and notes keep the numbering of the source. Results are given in words; binding and its absence hold for the method and conditions named. In cells and extracts the contact can be indirect. Some binding calls cover weakened binding; strength is not graded here. For some of these results: Sequences can lack the tags named with a protein. One block for each binder: values may come before it.

What was measured:
FOXM1-3×FLAG (human) = molecular target: T1, FOXM1-3×FLAG (human) (UniProt Q08050); test: co-IP; HEK293T co-transfected with FOXM1-3×FLAG and CDC25A-3×MYC; lysed in M-PER with protease and phosphatase inhibitors; anti-FLAG M2 resin overnight at 4°C; washed in TBS pH 7.2 with 0.1% Tween 20; eluted with 3×FLAG peptide; Western blot
T1 sequence: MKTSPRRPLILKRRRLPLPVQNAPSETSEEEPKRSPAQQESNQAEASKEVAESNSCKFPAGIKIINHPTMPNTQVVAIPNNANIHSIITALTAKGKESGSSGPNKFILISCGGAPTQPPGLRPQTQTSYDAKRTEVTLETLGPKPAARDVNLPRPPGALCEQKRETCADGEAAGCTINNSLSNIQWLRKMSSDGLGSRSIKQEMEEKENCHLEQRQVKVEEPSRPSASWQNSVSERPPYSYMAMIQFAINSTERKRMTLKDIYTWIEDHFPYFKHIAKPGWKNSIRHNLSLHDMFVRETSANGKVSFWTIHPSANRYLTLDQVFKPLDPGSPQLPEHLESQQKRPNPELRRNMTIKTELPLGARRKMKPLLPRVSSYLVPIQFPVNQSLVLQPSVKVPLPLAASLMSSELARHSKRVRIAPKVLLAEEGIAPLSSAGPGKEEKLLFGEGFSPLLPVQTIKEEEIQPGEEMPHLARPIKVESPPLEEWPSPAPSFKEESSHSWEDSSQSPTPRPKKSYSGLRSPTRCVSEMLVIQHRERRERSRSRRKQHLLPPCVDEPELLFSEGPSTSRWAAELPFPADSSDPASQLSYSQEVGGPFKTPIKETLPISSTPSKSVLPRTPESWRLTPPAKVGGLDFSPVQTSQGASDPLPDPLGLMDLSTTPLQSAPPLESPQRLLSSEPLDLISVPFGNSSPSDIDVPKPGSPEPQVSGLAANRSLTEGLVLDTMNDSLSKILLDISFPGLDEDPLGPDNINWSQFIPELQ

[1] = molecular target: T2, endogenous CDC25A (human (endogenous in U2OS)) (UniProt P30304); test: co-IP; U2OS transfected with FOXM1-3×FLAG (wild-type or mutant), 48 h; lysates precipitated with anti-CDC25A antibody agarose; blot with anti-FLAG
T2 sequence: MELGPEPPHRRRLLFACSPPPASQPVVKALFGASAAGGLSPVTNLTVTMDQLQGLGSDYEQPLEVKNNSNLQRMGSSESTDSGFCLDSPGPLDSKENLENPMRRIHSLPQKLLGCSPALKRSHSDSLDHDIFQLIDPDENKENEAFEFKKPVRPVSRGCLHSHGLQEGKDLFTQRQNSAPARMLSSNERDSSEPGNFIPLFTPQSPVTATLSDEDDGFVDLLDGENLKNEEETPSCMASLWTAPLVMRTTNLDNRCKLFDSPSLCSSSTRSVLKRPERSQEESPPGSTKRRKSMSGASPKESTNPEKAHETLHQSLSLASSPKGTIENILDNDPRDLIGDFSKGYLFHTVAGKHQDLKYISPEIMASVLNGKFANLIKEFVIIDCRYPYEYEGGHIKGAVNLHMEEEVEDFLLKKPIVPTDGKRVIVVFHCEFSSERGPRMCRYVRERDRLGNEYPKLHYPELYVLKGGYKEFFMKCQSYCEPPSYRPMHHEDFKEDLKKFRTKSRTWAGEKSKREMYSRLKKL

[2] = molecular target: T2, endogenous CDC25A (human (endogenous in U2OS)); test: co-IP; endogenous proteins, U2OS lysate in MPER with protease/phosphatase inhibitors; pre-cleared with protein G sepharose and normal rabbit IgG; anti-CDC25A antibody overnight at 4°C, protein G sepharose 1 h; blot with anti-FOXM1

binding (FOXM1-3×FLAG (human)): binds
B1: CDC25A-3×MYC (protein, UniProt P30304 1-524)
chain: T2 sequence

binding [1]: binds
B2: FOXM1-3×FLAG (wild-type), expressed in U2OS (protein, UniProt Q08050 1-763)
chain: T1 sequence

binding [1]: binds
B3: FOXM1(L656A)-3×FLAG (protein, UniProt Q08050 1-763)
chain: T1 sequence with L656A

binding [2]: binds
B4: endogenous FOXM1 (protein, UniProt Q08050 1-763)
chain: T1 sequence

binding [1]: binds
B5: FOXM1(T600A)-3×FLAG (protein, UniProt Q08050 1-763)
chain: T1 sequence with T600A

binding [1]: binds
B6: FOXM1(T620A)-3×FLAG (protein, UniProt Q08050 1-763)
chain: T1 sequence with T620A

binding [1]: binds
B7: FOXM1(T611A)-3×FLAG (protein, UniProt Q08050 1-763)
chain: T1 sequence with T611A
